Some of the results follow.

The test system of this assay is PfHDP1 homeodomain (GST-tagged). The experiment in a line: gcPBM binding intensity (ln(normalized median fluorescence intensity)); higher = stronger DNA binding. In short, it runs like this:
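Probes on an Agilent 4 × 180k array were primer-extended, double-stranded and 36 bp long, taken from intergenic genomic regions, with negative controls added. GST-tagged P. falciparum DNA-binding domains from E. coli, about 25 μg on average, were applied to the array for 1 h in 1× PBS containing 1% milk, 0.2 mg/ml BSA, 0.5% salmon testes DNA and 0.03% Triton X-100. Binding intensity, obtained after Alexa488 anti-GST antibody detection and a 488 nm scan, is the highest Masliner-normalised natural-log median intensity across replicate spots of either probe orientation.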
As for “TACTTTTATATGAATACACACAGGAATATAAATATG [CACACA_site7647]”, the “gcPBM binding intensity (ln)” value is 6.53.

In the case of “AAAAAATAGTGGTATGCATGTCCCTTGTATTTTCTT [TGCATGCA_site587]”, the “gcPBM binding intensity (ln)” value was determined as 6.24.

Turning to “TGGATACACAAAAATTAAAAAAATAAACAAACAAAT [GTGCAC_negctrl_site105]”, the “gcPBM binding intensity (ln)” value was determined as 6.97.

Take “AAAATACCCATTTTAGTACACACTTAAAAAATTATT [CACACA_site8966]”: the “gcPBM binding intensity (ln)” value was determined as 6.28.

As for “CATACATATATTATTGCACACATATAAAATACCCCC [CACACA_site9292]”, the “gcPBM binding intensity (ln)” value was 10.4.

Consider TACCAATAAATGAAGGTGCGTGCTTGCCTTTGCTAT, for which the “gcPBM binding intensity (ln)” value came out at 6.29.

On to “TTGAATAAATTGGAATAAATATAATAAAATAAGGAA [XGTACX_negctrl_site302]”, for which the “gcPBM binding intensity (ln)” value is 6.81.

Regarding “TTGTATAGTCTGATATGTACATATATATATATATAA [XGTACX_site4307]”, the “gcPBM binding intensity (ln)” value amounted to 6.89.

Take “TAGGAATTTAATAAATGTACATATACATAATATATA [XGTACX_site3672]”: the “gcPBM binding intensity (ln)” value came out at 6.12.

In the case of “ACCACCAGGAACAAAGCACATTAGGAAAAATAAAAC [XGTACX_negctrl_site228]”, the “gcPBM binding intensity (ln)” value turned out to be 6.6.

“TATAAAAAATTAAAATTTTTCTTATTTTTTTTAGAT [TGCATGCA_negctrl_site125]”: the “gcPBM binding intensity (ln)” value was 6.34.

For “TATGCAATATATTATATTCTGTAAATATTATATATT [TGCATGCA_negctrl_site67]”, the “gcPBM binding intensity (ln)” value came out at 6.49.

Regarding “TTTTTTAAAATATGGACACACATATATATATCTGTA [CACACA_site5535]”, the “gcPBM binding intensity (ln)” value worked out at 6.43.

For “ATAATCAACATTAGGTGTACAAAATATGTATGTTTT [XGTACX_site6696]”, the “gcPBM binding intensity (ln)” value was determined as 6.8.

Regarding “TATATATTTTTTAATTGTACACTTCAAAAACAAAAA [XGTACX_site5595]”, the “gcPBM binding intensity (ln)” value was found to be 6.54.

Take “TTCAAATTTCCACATACACACCTTGTAGATATATAT [CACACA_site7984]”: the “gcPBM binding intensity (ln)” value stood at 6.86.

Consider “AGAATAAATAAATATTGTACATATAAAATATATATA [XGTACX_site896]”, for which the “gcPBM binding intensity (ln)” value came out at 6.27.

With “ATTGAACACATCTATGCATGCACGGAAAAAAGTACA [TGCATGCA_site401]”, the “gcPBM binding intensity (ln)” value was 8.5.

As for “AAAAACTTAATATTGACACACATTTTTAAGAATAAT [CACACA_site4291]”, the “gcPBM binding intensity (ln)” value stood at 6.25.

On to GTAGTTATATTAAGGGTGCTTAATTAGATTAAACAA, for which the “gcPBM binding intensity (ln)” value is 6.04.

As for “TATATAACTAAAATAACACACATATATAAAAATATA [CACACA_site7416]”, the “gcPBM binding intensity (ln)” value stood at 6.46.

“ATTATAACACTTATTTCATTTGTATGCCCTTTAAAA [CACACA_negctrl_site955]”: the “gcPBM binding intensity (ln)” value is 6.73.

Consider “AGACCTATGATATATACACACATATATTTATTTATA [CACACA_site6630]”, for which the “gcPBM binding intensity (ln)” value was determined as 6.62.

For “TAATATTTCATTAGGTGTACACTACATAGTAGTAGA [XGTACX_site366]”, the “gcPBM binding intensity (ln)” value was 6.5.

For “TATAAATATTTTATTGTACACACTTTTTATGAATGA [CACACA_site3136]”, the “gcPBM binding intensity (ln)” value amounted to 6.98.

Consider “GTTTGTTTGTTTGTTCGTACATATATAAAATAAAAA [XGTACX_site4731]”, for which the “gcPBM binding intensity (ln)” value is 6.73.

For “TGTCACATAATTTATGCACACAATGATTATGCTTAA [CACACA_site2358]”, the “gcPBM binding intensity (ln)” value stood at 9.39.

As to “AAGTATAAATTAAAATGTACTTATAAAAAAAAAGAA [XGTACX_site7028]”, the “gcPBM binding intensity (ln)” value was determined as 6.78.

“CCATATTTCATTAATGAACACACAAAGAGGTATATA [CACACA_site8431]”: the “gcPBM binding intensity (ln)” value came to 6.94.

Consider “ACATATATTGTACATACACACCTATATAAATATCCT [CACACA_site7503]”, for which the “gcPBM binding intensity (ln)” value was 6.86.

For “TATGTATGTATGTATGCATGTGTAACACCTAAATAT [TGCATGCA_site361]”, the “gcPBM binding intensity (ln)” value is 7.03.

For the sequence “TATATATATATACCAACACACATACATATATATATA [CACACA_site8530]”, the “gcPBM binding intensity (ln)” value worked out at 8.96.

As to “TAAAAAATAAAAATTGCACACTAAAAAATTACGCAC [CACACA_site9129]”, the “gcPBM binding intensity (ln)” value was 8.98.

Take “AGGAAATTTGTTATTGCACACAAATTTTTCTTTTTT [CACACA_site8732]”: the “gcPBM binding intensity (ln)” value amounted to 9.48.

For the sequence “AATGTCAGTATGCGAGGTACACGTATAAAAATTACA [XGTACX_site4109]”, the “gcPBM binding intensity (ln)” value turned out to be 6.54.

As to “TATTATAATAAACCTATACACACATAAATAAATAAA [GTGCAC_negctrl_site627]”, the “gcPBM binding intensity (ln)” value worked out at 7.05.

“TTTTACTAAATATATACACACATTATACAGATATAT [CACACA_site5765]”: the “gcPBM binding intensity (ln)” value amounted to 6.67.

For the sequence “TACATAAATTAAAACACACACACACTAGAAAAAAAA [CACACA_site5278]”, the “gcPBM binding intensity (ln)” value is 7.16.

For the sequence “ACATATATATATATGTGTACATATTTATACAACAAT [XGTACX_site6660]”, the “gcPBM binding intensity (ln)” value is 7.03.

As to “TTTTAAATTGGAGTGGGCAGATTGATATTATTCTTC [GTGCAC_negctrl_site191]”, the “gcPBM binding intensity (ln)” value worked out at 6.56.

In the case of “AAAAATAAAATATATACACACATATATATATATATA [CACACA_site2943]”, the “gcPBM binding intensity (ln)” value came to 9.48.

On to TTTTTAATTTTGTGGGTGCTTTCGTGTTATTATATA, for which the “gcPBM binding intensity (ln)” value worked out at 7.23.

“TTTTTTTTTTCTCTCGCACACATTTTTTAAAATGAG [CACACA_site2607]”: the “gcPBM binding intensity (ln)” value turned out to be 7.06.

Consider “AGTAGGCATATTGGTTGTACAAAAAAATTATGCACC [XGTACX_site8925]”, for which the “gcPBM binding intensity (ln)” value stood at 10.6.

With “GACTCTTAAAAAATTTGTACCCACATAAATAATATA [XGTACX_site4313]”, the “gcPBM binding intensity (ln)” value is 6.29.

The values above are taken from the supplement of paper PMC11417369.
